# Reference: the supplement of paper PMC8512760
# Some of the results follow. Many values rest on one well or one pass, so single values are uncertain.
# How the values were obtained:
# Test in all cases: cell viability relative to vehicle (% of vehicle); basal-like triple-negative breast cancer lines; higher = less cytotoxic
# Conditions in all cases: 10 µM; 72 h
# HCC-1143 = test system: HCC-1143
# HCC-1187 = test system: HCC-1187
# MDA-468 = test system: MDA-468
# SUM-149 = test system: SUM-149
# 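Note: stably firefly luciferase-GFP labeled cells in 96-well plates, viability read as luciferase photon flux after d-luciferin addition, treated wells normalized to vehicle wells, single-dose high-throughput screen.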
Structure (SMILES),cell viability (HCC-1143),cell viability (HCC-1187),cell viability (MDA-468),cell viability (SUM-149)
O=c1c(-n2ccnn2)c[nH]n1-c1cc(N2CCOCC2)ncn1 [Molidustat (BAY85-3934)],137,106,170,
COc1ccc(-c2cc(=O)c3c(O)cc(O)cc3o2)cc1O [Diosmetin],113,120,,
Nc1nc(Cl)nc2c1ncn2C1CC(O)C(CO)O1 (stereo not drawn) [Cladribine],58.2,51.1,93.8,
CCC(=O)OC1(C(=O)CCl)C(C)CC2C3CC(F)C4=CC(=O)C=CC4(C)C3(F)C(O)CC21C (stereo not drawn) [Halobetasol Propionate],121,116,108,
O=C1C=CC=CC1=C1NC(=C2C=CC=CC2=O)N(c2ccc(C(=O)O)cc2)N1 [Deferasirox],61.3,66.3,80.6,
Nc1nc(F)nc2c1ncn2C1OC(CO)C(O)C1O (stereo not drawn) [Fludarabine],72.4,75,91.5,
COc1cc(Nc2nc3ccccc3nc2NS(=O)(=O)c2ccc(NC(=O)c3ccc(C)c(OC)c3)cc2)cc(OC)c1,86.6,133,74.2,88.2
CCCCc1nc2cc(C=CC(=O)NO)ccc2n1CCN(CC)CC [Pracinostat (SB939)],43,31.1,43.4,
O=c1[nH]c(=O)n(C2CC(O)C(CO)O2)cc1C(F)(F)F (stereo not drawn) [Triflurdine (Viroptic)],62.7,117,113,
CCCSc1ccc2nc(NC(=O)OC)[nH]c2c1 [Albendazole],87.2,93.3,61.9,
CCCC(CCC)C(=O)[O-].[Na+] [Valproic acid sodium salt (Sodium valproate)],84,90,91.5,112
CN(CCOc1ccc(CC2SC(=O)NC2=O)cc1)c1ccccn1 (stereo not drawn) [Rosiglitazone],133,99.6,140,
CC1CCOC2Cn3cc(C(=O)NCc4ccc(F)cc4F)c(=O)c(O)c3C(=O)N12 (stereo not drawn),158,69,150,
CC1CC2C3CCC4=CC(=O)C=CC4(C)C3(F)C(O)CC2(C)C1(O)C(=O)CO (stereo not drawn) [Betamethasone],82.4,105,178,
O=c1[nH]c(=O)n(C2CC(O)C(CO)O2)cc1I (stereo not drawn) [Idoxuridine],89.6,121,156,
CC(NCc1ccc(OCc2cccc(F)c2)cc1)C(N)=O.CS(=O)(=O)O (stereo not drawn) [Safinamide Mesylate],171,75,158,
CCC(=O)OC1(C(=O)CCl)C(C)CC2C3CCC4=CC(=O)C=CC4(C)C3(F)C(O)CC21C (stereo not drawn) [Clobetasol propionate],78.7,90.9,158,
COc1ccc(C2Sc3ccccc3N(CCN(C)C)C(=O)C2OC(C)=O)cc1.Cl (stereo not drawn) [Diltiazem HCl],84.6,97.5,95.2,103
c1ccc2[nH]c(-c3cscn3)nc2c1 [Thiabendazole],156,,,

Structure (SMILES),cell viability (HCC-1143),cell viability (HCC-1187),cell viability (MDA-468),cell viability (SUM-149)
"Nc1ccccc1NC(=O)c1ccc(CNc2nccc(-c3cccnc3)n2)cc1 [Mocetinostat (MGCD0103, MG0103)]",102,72.5,92.7,
CC1CC2C(C(O)CC3(C)C2CCC3(O)C(=O)CO)C2(C)C=CC(=O)C=C12 (stereo not drawn) [Methylprednisolone],96.7,108,137,
COc1ccc(CC2c3cc(OC)c(OC)cc3CC[N+]2(C)CCC(=O)OCCCCCOC(=O)CC[N+]2(C)CCc3cc(OC)c(OC)cc3C2Cc2ccc(OC)c(OC)c2)cc1OC.O=S(=O)([O-])c1ccccc1.O=S(=O)([O-])c1ccccc1 (stereo not drawn) [Cisatracurium Besylate],80.9,86.6,99.5,99.9
CC(=O)OCC(=O)[C@@]12OC(C)(C)O[C@@H]1C[C@H]1[C@@H]3C[C@H](F)C4=CC(=O)C=C[C@]4(C)[C@@]3(F)[C@@H](O)C[C@@]12C [Fluocinonide],96.2,82.9,173,
Cn1cnc([N+](=O)[O-])c1Sc1ncnc2nc[nH]c12 [Azathioprine],66.5,72.4,99.1,
CCc1cnn2c(NCc3ccc[n+]([O-])c3)cc(N3CCCCC3CCO)nc12 (stereo not drawn),45.6,33.8,41.1,
Cc1cc(C2CCCCC2)n(O)c(=O)c1.NCCO [Ciclopirox ethanolamine],59.2,65,33.3,
CC(=O)c1c(C)c2cnc(Nc3ccc(N4CCNCC4)cn3)nc2n(C2CCCC2)c1=O.O=S(=O)(O)CCO,111,92.3,102,
Cc1[nH]c2ccccc2c1CCNCc1ccc(C=CC(=O)NO)cc1 [Panobinostat (LBH589)],37.3,22.5,23.2,
COC(=O)Nc1nc2ccc(Sc3ccccc3)cc2[nH]1 [Fenbendazole],126,57.3,90.7,
Nc1nc(Cl)nc2c1ncn2C1OC(CO)C(O)C1F (stereo not drawn) [Clofarabine],73.3,61.9,61,
Nc1nc(NC2CC2)c2ncn(C3C=CC(CO)C3)c2n1 (stereo not drawn) [Abacavir],168,101,,
O=C([O-])Cc1ccccc1Nc1c(Cl)cccc1Cl.[Na+] [Diclofenac Sodium],107,83,100,114
"CCCS(=O)(=O)Nc1ccc(F)c(C(=O)c2c[nH]c3ncc(-c4ccc(Cl)cc4)cc23)c1F [Vemurafenib (PLX4032, RG7204)]",91.7,93.8,50.8,106
CCC(=O)OC1(C(=O)SCF)C(C)CC2C3CC(F)C4=CC(=O)C=CC4(C)C3(F)C(O)CC21C (stereo not drawn) [Fluticasone propionate],87,104,167,
CCC(CC)C(NC(C)=O)C1C(N=C(N)N)CC(C(=O)O)C1O (stereo not drawn) [Peramivir],95.4,112,92.3,130
[O-]n1ccccc1=S.[O-]n1ccccc1=S.[Zn+2] [Zinc Pyrithione],79.5,31.6,52.7,
CCC(=C(c1ccccc1)c1ccc(OCCN(C)C)cc1)c1ccccc1.O=C(O)CC(O)(CC(=O)O)C(=O)O [Tamoxifen Citrate],101,86.7,120,98.6
Cn1nnc(-c2ccc(-c3ccc(N4CC(CO)OC4=O)cc3F)cn2)n1 (stereo not drawn) [Tedizolid],196,185,,

Structure (SMILES),cell viability (HCC-1143),cell viability (HCC-1187),cell viability (MDA-468),cell viability (SUM-149)
Nc1nc2[nH][nH]nc-2c(=O)n1 [Azaguanine-8],121,108,143,
COC(=O)C1=C(C)NC(C)=C(C(=O)OCC(C)C)C1c1ccccc1[N+](=O)[O-] (stereo not drawn) [Nisoldipine],81.7,74.7,97,103
O=C1CCCC(=O)C1C(=O)c1ccc(C(F)(F)F)cc1[N+](=O)[O-] [Nitisinone],101,99.2,113,115
O[C@@H]1CO[C@H]2[C@@H]1OC[C@@H]2O [Isosorbide],69.5,85.5,112,114
Cc1ccc(O)c(C(CCN(C(C)C)C(C)C)c2ccccc2)c1.O=C(O)C(O)C(O)C(=O)O (stereo not drawn) [Tolterodine tartrate],93.4,93.1,112,107
CCCN1CCCCC1C(=O)Nc1c(C)cccc1C.Cl.O (stereo not drawn) [Ropivacaine hydrochloride monohydrate],74.2,77.4,105,105
C=CC(=O)N1CCC(Oc2cc3c(Nc4ccc(Cl)c(Cl)c4F)ncnc3cc2OC)CC1 [Poziotinib],49.9,40.8,52.9,34.6
CC12CCC3c4ccc(O)cc4CCC3C1CC(O)C2O (stereo not drawn) [Estriol],70.1,112,91.5,103
CC(C)CC(NC(=O)CNC(=O)c1cc(Cl)ccc1Cl)B(O)O (stereo not drawn),17.3,8.86,13.7,28.3
O=c1c(O)c(-c2ccc(O)c(O)c2)oc2cc(O)cc(O)c12 [Quercetin],169,106,129,155
Cl.c1ccc(CN(CC2=NCCN2)c2ccccc2)cc1 [Antazoline HCl],97.8,100,104,114
COc1cc2c(Nc3ccc(Br)cc3F)ncnc2cc1OCC1CCN(C)CC1 [Vandetanib (ZD6474)],51,54.5,66.4,31.2
CC1CC(=O)NN=C1c1ccc(NN=C(C#N)C#N)cc1 (stereo not drawn) [Levosimendan],74.1,66.4,73.8,88.8
CC(=O)Oc1cc(C(F)(F)F)ccc1C(=O)O [Triflusal],104,85.8,106,95.3
CC12CCC3=C4CCC(=O)C=C4CCC3C1CCC2(O)CC#N (stereo not drawn) [Dienogest],75.6,107,99.1,112
CN(Cc1cc(Br)cc(Br)c1N)C1CCCCC1.Cl [Bromhexine HCl],71.6,91.3,120,135
CCOc1ccc2ccccc2c1C(=O)NC1C(=O)N2C1SC(C)(C)C2C(=O)[O-].O.[Na+] (stereo not drawn) [Nafcillin Sodium],120,114,103,122
"CCC(CO)Nc1nc(NCc2ccccc2)c2ncn(C(C)C)c2n1 (stereo not drawn) [Roscovitine (Seliciclib,CYC202)]",81.8,63.4,80.2,133
